# Results: PubChem BioAssay AID588579 (National Center for Advancing Translational Sciences (NCATS), 2011)
# “And” between values parts separate entries of the source, which are not always exact repeats. Equal entries are not always repeated. Among all 400,000 compounds or so, about 2,200 (0.55%) were called active. Inconclusive means that the source gave no clear call. Such entries were picked first, then a sample of the others. The call rests on the fitted dose curve; in most records, active means well fitted inhibition curve with a large enough effect; inconclusive means small, poorly fitted or top-dose-only effect, or another doubt; inactive means no such curve, though single readings can be large or run the other way. Where the call is inconclusive, the potency comes from a doubtful curve fit.
# Molecular target: DNA polymerase kappa (Homo sapiens) (UniProt Q9UBT6)
# UniProt Q9UBT6, sequence (Q9UBT6 whole entry, looked up): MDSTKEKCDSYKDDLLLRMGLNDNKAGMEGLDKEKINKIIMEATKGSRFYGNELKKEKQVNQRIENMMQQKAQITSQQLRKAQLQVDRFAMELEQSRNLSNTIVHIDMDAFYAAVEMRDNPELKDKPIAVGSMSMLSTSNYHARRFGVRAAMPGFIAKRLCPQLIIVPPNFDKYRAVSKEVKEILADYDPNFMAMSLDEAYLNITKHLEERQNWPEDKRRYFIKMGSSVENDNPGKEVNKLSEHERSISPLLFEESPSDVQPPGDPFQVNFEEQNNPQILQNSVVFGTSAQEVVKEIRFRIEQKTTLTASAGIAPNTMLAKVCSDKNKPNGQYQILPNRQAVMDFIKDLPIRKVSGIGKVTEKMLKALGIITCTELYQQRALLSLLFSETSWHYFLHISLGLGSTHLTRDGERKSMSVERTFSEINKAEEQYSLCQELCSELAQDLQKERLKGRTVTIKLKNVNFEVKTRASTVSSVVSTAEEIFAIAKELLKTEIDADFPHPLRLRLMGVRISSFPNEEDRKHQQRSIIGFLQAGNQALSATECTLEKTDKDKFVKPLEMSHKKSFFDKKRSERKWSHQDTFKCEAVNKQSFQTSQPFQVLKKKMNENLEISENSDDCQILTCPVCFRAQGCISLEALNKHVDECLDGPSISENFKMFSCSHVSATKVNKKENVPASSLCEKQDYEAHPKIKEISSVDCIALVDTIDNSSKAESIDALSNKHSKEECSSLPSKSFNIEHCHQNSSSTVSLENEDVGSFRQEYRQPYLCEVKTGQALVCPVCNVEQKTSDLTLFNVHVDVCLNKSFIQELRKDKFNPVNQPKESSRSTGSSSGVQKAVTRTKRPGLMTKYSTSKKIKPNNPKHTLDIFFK
# Assay: qHTS for Inhibitors of Polymerase Kappa
# Conditions: purified Pol kappa, fluorescent DNA synthesis assay, 10 min; series mostly up to 107 µM; activity, negative = inhibition: at the top concentration
# Summary of the method: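 10 nM Pol kappa was preincubated with compounds for 15 min at room temperature. Reaction started with 50 nM (final) substrate. Fluorescence read kinetically at 0 and 10 min.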
# On the % scale 0 is the no-effect control and ±100 the full control effect; potency means the concentration at half of the fitted maximal effect; tags describe the fitted curve by direction and shape.
Structure (SMILES),Potency,"activity, negative = inhibition"
c1ccc(CN2CCOCCOCCOCC2)cc1,"inconclusive: 100 µM [inhibitor, partial curve, poor fit]",–
O=C(N/N=C/c1ccccc1C(=O)O)c1ccc(COc2cccc3cccnc23)cc1,"inconclusive: 89.1 µM [inhibitor, single point]",–
CC(=O)Nc1nc(-c2ccccc2)cc(-c2ccco2)c1C#N,–,inactive: -2.58%
CC(=O)c1ccc(NC(=O)c2ccc(NC(=O)c3ccco3)cc2)cc1,–,inactive: -10.9%
Nc1c(-c2ccccc2)sc2ccc3ccccc3[n+]12,"inconclusive: 100 µM [inhibitor, single point]",–
COc1ccccc1Nc1cc2cc(Br)ccc2c(=O)[nH]1,active: 79.4 µM,–
COC(=O)c1ccc(N2NC(=O)/C(=C/c3ccc(-c4ccc(Cl)c(C(=O)O)c4)o3)C2=O)cc1,active: 28.2 µM,–
CCn1cc(S(=O)(=O)c2ccc(OC)cc2)c(=O)c2cc(F)c(N3CCC(C)CC3)cc21,"inconclusive: 89.1 µM [inhibitor, single point]",–
COc1c(O)cc2oc(-c3ccc(O)cc3)cc(=O)c2c1O,"inconclusive: 33.6 µM [inhibitor, single point]",–
Cc1ccc(NC(=O)CSCn2nnc3c(=O)[nH]c(Cc4ccc(F)cc4)nc32)c(C)c1,"inconclusive: 89.1 µM [inhibitor, partial curve, poor fit]",–
O=C(CSc1nnc(SCc2ccc(Cl)cc2)s1)N/N=C/c1c[nH]c2ccccc12,"inconclusive: 15.8 µM [inhibitor, full curve, poor fit]",–
O=C(CSc1nc2ccc(Nc3nc(N4CCOCC4)nc(N4CCOCC4)n3)cc2s1)NCc1ccco1,"inconclusive: 39.8 µM [inhibitor, single point]",–
Cc1coc2c1C(=O)C(=O)c1c-2ccc2c1CCCC2(C)C,"inconclusive: 50.1 µM [inhibitor, partial curve, poor fit] and inconclusive: 35.5 µM [inhibitor, single point] and inconclusive: 12.6 µM [inhibitor, single point]",–
CC(C)c1ccc(S(=O)(=O)N2CCN(C(=S)NCc3ccco3)CC2)cc1,–,inactive: -9.12%
Cc1cc(-c2ccc(C)c(S(=O)(=O)N3CCCC(C)C3)c2)on1 (configuration not stated),–,inactive: 1.21%
Cc1ccc(Nc2nnc(SCC(=O)NCc3ccco3)s2)cc1,"inconclusive: 89.1 µM [inhibitor, partial curve, poor fit]",–
O=C(O)c1ccc(Cl)c(S(=O)(=O)Nc2ccc3cn[nH]c3c2)c1,"inconclusive: 89.1 µM [inhibitor, single point]",–
